# Assay results taken from PubChem BioAssay AID445 (National Center for Advancing Translational Sciences (NCATS), 2006).
# Values joined by “and” are separate entries in the source; they are usually repeats but may differ in a detail not shown here. Equal entries are not always repeated. In all, about 110,000 compounds went through this assay and about 40 (0.04%) were called active. Inconclusive means that the source gave no clear call. Such entries were picked first, then a sample of the others. The call rests on the fitted dose curve; in most records, active means well fitted curve in the direction sought with a large enough effect in the signal ratio (not every such curve was filed as active); inconclusive means small, poorly fitted or top-dose-only effect, or a change in a side signal; inactive means flat fitted curve, though single readings scatter; the % refers to the signal ratio. Potencies of inconclusive entries are doubtful fits and often do not repeat.
# Assay: IkB Signaling;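 on IkBa stabilization activation: 0% = basal untreated cells and 100% = reference inhibitor full response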
# Conditions: ABC-DLBCL IkBa-CBG/CBR dual luciferase ratio (green luciferase fused to IkBa over red control in OCI-Ly3 lymphoma cells), 4 h, scaled: untreated 0%
# Method in brief: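 In this assay, an IκBα–CBG68 fusion accumulates when IKK-driven degradation is blocked; native CBR normalizes for cell number. OCI-Ly3 cells were treated 4 h with compound and doxycycline, then green and red light read after Chroma-Glo addition.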
# [1] = IkBa stabilization activation: at 57.1 µM (top of the series), proteasome inhibitor 100% unless noted
# Potency means the concentration at half of the fitted maximal effect.
compound,measurement,setting,value
COc1ccc(-c2noc(-c3ccccc3OCC(=O)Nc3ccc(C(C)=O)cc3)n2)cc1,IkBa stabilization activation,[1],inconclusive: 0.674% [signal inhibitor]
CC(C)Cn1c(SCC(=O)N2CCN(S(=O)(=O)c3ccccc3)CC2)nc2ccccc21,IkBa stabilization activation,[1],inconclusive: 3.38% [signal inhibitor]
CCc1cccc(NC(=O)Cn2c(C(=O)OC)cc3occc32)c1,IkBa stabilization activation,[1],inactive
COc1ccccc1NC(=O)Cn1c(=O)n(-c2ccccc2Cl)c(=O)c2sc3ccccc3c21,IkBa stabilization activation,[1],inconclusive: 1.19% [signal inhibitor]
O=C(CN1CCN(c2ccc(Cl)cc2)CC1)Nc1ccc(F)cc1,IkBa stabilization activation,[1],inconclusive: 3.14% [signal inhibitor]
CCCCC(=O)Nc1nnc(S(=O)(=O)N2CCCCCC2)s1,IkBa stabilization activation,[1],inconclusive: -3.36% [signal inhibitor]
O=C(CCn1nc(-c2ccc(Cl)cc2)ccc1=O)N1CCN(c2ccccn2)CC1,IkBa stabilization activation,[1],inactive
CC(C)CCn1c(=O)c2ccccc2n2c(CN(C)Cc3ccccc3)nnc12,IkBa stabilization activation,[1],inconclusive: 0.719% [signal inhibitor]
CCN(c1cccc(C)c1)C(CNS(=O)(=O)c1ccccc1)c1ccccc1 (stereo not given),IkBa stabilization activation,[1],inconclusive: 0.994% [signal inhibitor]
CCOc1ccc(NC(=O)c2cccc(N3CCCS3(=O)=O)c2)cc1,IkBa stabilization activation,[1],inconclusive: 1.65% [signal inhibitor]
Cc1ccc(C)c(CNC(=O)C2CCCCN2S(=O)(=O)c2ccc(F)cc2)c1 (stereo not given),IkBa stabilization activation,[1],inconclusive: 2.4% [signal inhibitor]
Cc1cccc(-c2cc(NC(=O)c3ccccc3C)n(-c3ccccc3)n2)c1,IkBa stabilization activation,[1],inconclusive: 6.55% [signal inhibitor]
O=C(Nc1ccc(F)c(Cl)c1)C1CCCN(c2ncnc3onc(-c4ccc(F)cc4)c23)C1 (stereo not given),IkBa stabilization activation,[1],inconclusive: 3.21% [signal inhibitor]
NC(=O)c1cnn2c(C(F)(F)F)cc(-c3ccccc3)nc12,IkBa stabilization activation,[1],inactive
CCSc1ccccc1C(=O)n1nnc2ccccc21,IkBa stabilization activation,[1],inconclusive: 2.77% [signal inhibitor]
Cc1ccc(C(=O)[C@@H]2[C@@H]3[C@@H](C(=O)[C@@H]4OC[C@H]3O4)[C@@H]3C=Cc4ccccc4N23)cc1,IkBa stabilization activation,[1],"inactive: 3.07% [at 11.4 µM, scaled: untreated 0%, proteasome inhibitor 100%]"
CCOc1ccc2nc(Cl)c(C3CC(c4ccc(C)cc4)=NN3C(=O)CCCC(=O)O)cc2c1 (stereo not given),IkBa stabilization activation,[1],inactive
Cc1cccc(N2CCN(c3ncnc4onc(-c5ccc(F)cc5)c34)CC2C)c1 (stereo not given),IkBa stabilization activation,[1],inconclusive: -1.32% [signal inhibitor]
O=C(Nc1ccc(S(=O)(=O)C(F)F)cc1)c1cccc(S(=O)(=O)N2CCOCC2)c1,IkBa stabilization activation,[1],inconclusive: 7.71% [signal inhibitor]
Cc1ccc(NC(=O)CCc2nc3cccnc3n2-c2ccccc2)cc1,IkBa stabilization activation,[1],inconclusive: 5.47% [signal inhibitor]
CC(C)(C)C(=O)Nc1ccc(Cl)c(-c2nc3ccccc3[nH]2)c1,IkBa stabilization activation,[1],inconclusive: -0.523% [signal inhibitor]
O=C(Cn1c(=O)n(Cc2ccc(C(=O)NCc3ccccc3Cl)cc2)c(=O)c2ccccc21)Nc1ccc(F)cc1,Potency,[1],"inconclusive: 7.94 µM [signal inhibitor, partial curve]"
CCN(CC)S(=O)(=O)c1ccc2c(c1)N(CC(=O)Nc1ccc(F)cc1F)C(=O)C1CCCN21 (stereo not given),IkBa stabilization activation,[1],inconclusive: 8.22% [signal inhibitor]
Cc1ccc(CNc2ccc(-c3nc(-c4cccnc4)no3)cc2[N+](=O)[O-])cc1,IkBa stabilization activation,[1],inconclusive: 1.44% [signal inhibitor]
CCOC(=O)c1[nH]c2ccccc2c1NC(=O)c1ccc(OC)c(OC)c1,IkBa stabilization activation,[1],inactive
Cc1cc(N2CCCCCC2)nc(-c2ccccc2O)n1,IkBa stabilization activation,[1],inactive
COc1ccc(OCC(=O)N2CCN(c3cccc(C(F)(F)F)c3)CC2)cc1,IkBa stabilization activation,[1],inconclusive: 1.13% [signal inhibitor]
Oc1cccc(-c2nc3ncccn3c2Nc2cccc(C(F)(F)F)c2)c1,IkBa stabilization activation,[1],inconclusive: -2.5% [signal inhibitor]
CC1Cc2ccccc2N1S(=O)(=O)c1cccc2nsnc12 (stereo not given),IkBa stabilization activation,[1],inactive
CCOc1ccccc1NC(=O)c1ccc2oc(=O)c(S(=O)(=O)c3ccc(F)cc3)cc2c1,Potency,[1],"inconclusive: 3.98 µM [rising, full curve]"
Cc1nn(-c2ccccc2)c(C)c1C(=O)OC/C(O)=C(\C#N)c1nc2ccccc2[nH]1,IkBa stabilization activation,[1],inconclusive: 11.2% [signal inhibitor]
CN(C(=O)CSc1nc2ccc(NC(=O)c3ccc(F)cc3)cc2s1)c1ccccc1,IkBa stabilization activation,[1],inconclusive: 5.01% [signal inhibitor]
O=c1c(-c2ccc(O)cc2)coc2cc(O)cc(O)c12,IkBa stabilization activation,[1],inconclusive: -0.433% [signal inhibitor]
same,IkBa stabilization activation,"at 11.4 µM (top of the series), proteasome inhibitor 100%",inactive: -6.57%
same,IkBa stabilization activation,"at 57.1 µM (top of the series), proteasome inhibitor 100%",inactive: -16.1% and inactive: -6.12%
